From PubChem BioAssay AID651820 (National Center for Advancing Translational Sciences (NCATS), 2012)
Values joined by “and” are separate entries in the source; they are usually repeats but may differ in a detail not shown here. Equal entries are not always repeated. The campaign covered roughly 340,000 compounds. About 12,000 (3.5%) were called active. Inconclusive means that the source gave no clear call. Such entries were picked first, then a sample of the others. Calls follow the shape of the dose curve; as a rule, active = well fitted inhibition curve with a large enough effect; inconclusive = small, poorly fitted or top-dose-only effect, or another doubt; inactive = no such curve, though single readings can be large or run the other way. Where the call is inconclusive, the potency comes from a doubtful curve fit.

Experiment: qHTS Assay for Inhibitors of Hepatitis C Virus (HCV)
Conditions: Huh7.5.1 HCVcc-Cre (HCVcc is cell-culture hepatitis C virus) infection, luciferase reporter, 44 h; activity change, negative = inhibition: at 41.8 µM (top of the series) unless noted
Procedure, shortened: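 Seed cells (1,000/well) for 4 h; treat with compound and infect with HCVcc-Cre, moi about 0.5. Incubate 44 h, then detect luciferase activity.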
% is scaled to controls: 0 for no effect and ±100 for the full control effect; potency is read from the fitted curve at half-maximal effect; tags tell the direction and shape of the fitted curve.

Compound | activity change, negative = inhibition | Potency
O=C(CN1CCN(S(=O)(=O)c2ccc(Cl)cc2)CC1)c1ccc(O)c(O)c1 | inactive: -9.29% | 
O=C(CNC(=O)c1ccccc1F)OCc1nc2ccc(Cl)cc2n1CCO | inactive: 1.34% | 
Nc1c2c(nc3ccccc13)CCCC2 |  | inconclusive: 31.6 µM [inhibitor, single point]
CC(=O)c1ccc(N2Cc3ccccc3/C2=N\C(=O)Nc2ccccc2)cc1 | inactive: -6.87% | 
CCC(=O)N(Cc1ccco1)c1nc(-c2cc(OC)ccc2OC)cs1 |  | inconclusive: 2.24 µM [inhibitor, full curve]
COc1ccc(C(C)N2CC34C=CC(O3)C(C(=O)OCC(C)C)C4C2=O)cc1 (stereo not given) | inactive: 0.0558% | 
COc1ccc2cc(C(c3nnnn3C(C)(C)C)N3CCSCC3)c(=O)[nH]c2c1 (stereo not given) | inactive: -24% | 
CCOC(=O)c1cc2c(OC)ccc(OC)c2n1CC(=O)c1ccccc1 | inactive: -14.6% | 
CC(C)=CCN1CCN(Cc2cccn2-c2ccccn2)CC1CCO (stereo not given) |  | inconclusive: 3.55 µM [inhibitor, partial curve]
Nc1nn(-c2ccccc2)c(N)c1N=Nc1ccccc1F |  | inconclusive: 6.31 µM [inhibitor, partial curve]
CN1CCN(CC(=O)N2c3ccccc3C(C)(c3ccccc3)CC2(C)C)CC1 (stereo not given) |  | inconclusive: 11.2 µM [inhibitor, single point]
CC(C)Cn1c(N)c(C(=O)COC(=O)c2ccc(F)cc2)c(=O)n(C)c1=O |  | inconclusive: 10 µM [inhibitor, partial curve]
CCOC(=O)C(=O)N(CC)C1CCS(=O)(=O)C1 (stereo not given) | inactive: -0.0911% | 
Cc1ccc(S(=O)(=O)N2CCCC2)cc1C(=O)Nc1ccc(-n2cnnn2)cc1 |  | inconclusive: 14.1 µM [inhibitor, single point]
Cc1ccc(C(=O)Nc2ccc3c(c2)OCCO3)c(Cl)c1 | inactive: -16.2% | 
O=C(Nc1ccn(CCCN(CCCn2ccc(NC(=O)OCc3ccccc3)nc2=O)CCc2cc3ccccc3[nH]2)c(=O)n1)OCc1ccccc1 |  | inconclusive: 7.94 µM [inhibitor, partial curve]
COc1cccc(CC(=O)N2CCCC(CO)(Cc3ccc(F)cc3F)C2)c1 (stereo not given) | inactive: 5.46% | 
O=C(CSc1nnc(Cc2cccs2)n1Cc1ccco1)Nc1cccc(Cl)c1 |  | inconclusive: 1.58 µM [inhibitor, full curve] and inconclusive: 2.82 µM [inhibitor, partial curve]
Clc1cccc(/C=N/Nc2nnc(Cl)c3ccccc23)c1 | inactive: 7.83% | 
COc1cc(OCc2ccc(C)cc2)ccc1CNC[C@H]1O[C@@H](n2cnc(C(N)=O)n2)[C@H](O)[C@@H]1O |  | inconclusive: 22.4 µM [inhibitor, single point]
CCOC(=O)c1sc(NC(=O)CCN2CCN(CC)CC2)c(C(=O)OCC)c1C |  | active: 10 µM
COc1ccc(NC(=O)c2cc3ccccc3cc2OC)cc1 |  | active: 8.91 µM
COc1cccc(OCc2cc(C(=O)N3CCC(c4ccncc4)CC3)no2)c1 |  | active: 10 µM
O=C(NC1CCCc2c1cnn2-c1ccc(F)cc1F)c1cnccn1 (stereo not given) |  | inconclusive: 3.16 µM [inhibitor, full curve]

Compound | activity change, negative = inhibition | Potency
O=C(CN1CCC(c2nc3ccccc3s2)CC1)NCc1cccs1 |  | active: 3.16 µM
Cc1ccccc1N1CCN(C(=O)c2ccccc2NC(=O)/C=C\C(=O)O)CC1 | inactive: 6.89% | 
COc1cc(NC(=O)c2ccc(OC)c([N+](=O)[O-])c2)ccc1NC(=O)c1ccco1 |  | inconclusive: 0.316 µM [inhibitor, full curve, poor fit]
COc1cc(/C=C(\C#N)c2[nH]nc(N)c2C#N)cc(OC)c1O |  | inconclusive: 10 µM [inhibitor, single point]
COc1ccc2c(c1)cc1n2CCN2CCCN=C12 | inactive: -12% | 
COC(=O)c1sc(NC(=S)NC(=O)c2ccccc2F)nc1C |  | inconclusive: 2 µM [inhibitor, partial curve]
COC(=O)c1c(NC(=O)Cc2cccs2)sc(C)c1C |  | active: 11.2 µM
Cc1ccc(S(=O)(=O)NCc2nc3nc(C)cc(C)n3n2)c(C)c1 | inactive: 6.57% | 
CN1CCN(c2nc3c(c(=O)[nH]c(=O)n3C)n2CCCSc2ncccn2)CC1 | inactive: 9.93% | 
Clc1ccc(-c2csc(=Nc3cccnc3)n2CCCn2ccnc2)cc1Cl |  | active: 11.2 µM
COc1cc(C(=O)NC(=S)Nc2nccs2)cc(OC)c1OC |  | inconclusive: 11.2 µM [inhibitor, partial curve]
O=C(CCl)N1CCN(S(=O)(=O)c2ccc3ccccc3c2)CC1 |  | inconclusive: 31.6 µM [inhibitor, single point]
Cc1cc(=O)oc2c(C)c(OCC(=O)N3CCN(Cc4ccccc4)CC3)ccc12 |  | inconclusive: 10 µM [inhibitor, partial curve]
O=C(NC1CC1)C1=C[C@H](c2ccc(Br)cc2)C[C@H](OCc2ccc(CO)cc2)O1 |  | inconclusive: 12.6 µM [inhibitor, partial curve]
CC(NC(=O)COc1ccccc1)C(=O)N1CCN(c2ccccc2)CC1 (stereo not given) | inactive: 8.4% | 
COc1ccccc1N(C)S(=O)(=O)c1ccc(C(=O)N(C)Cc2ccc(OC(F)F)cc2)cc1 |  | active: 3.98 µM
CCC(=O)Nc1cccc(NC(=S)NC(=O)c2cccs2)c1 | inactive: 1.66% | 
CCOC(=O)C1CCCN(C(=O)c2cn(C)c3ccc(S(=O)(=O)N4CCCC4)cc3c2=O)C1 (stereo not given) |  | inconclusive: 2.82 µM [inhibitor, partial curve]
CCOC(=O)C1(Cc2cccc(F)c2)CCN(Cc2cn(CC)nc2C)CC1 |  | inconclusive: 0.501 µM [inhibitor, full curve, poor fit]
C=CCn1c(-c2cc(OC)c(OC)c(OC)c2)n[nH]c1=S | inactive: 8.99% | 
c1ccc(-c2cn(-c3ccccc3)c3ncnc(N4CCCCC4)c23)cc1 |  | inconclusive: 31.6 µM [inhibitor, single point]
Cc1ccc2cc(CN(CC3CCCO3)C(=S)NCc3ccco3)c(=O)[nH]c2c1C (stereo not given) |  | inconclusive: 5.62 µM [inhibitor, full curve]
Cc1ccc2c(c1)c1c3n2CC(=C2C(=O)OC(C)(C)OC2=O)NC3CCC1 (stereo not given) |  | active: 5.01 µM
COC(=O)Nc1ccc(S(=O)(=O)N2CCCC(C(=O)Nc3cccc4c3OCCO4)C2)cc1 (stereo not given) |  | inconclusive: 31.6 µM [inhibitor, single point]

Compound | activity change, negative = inhibition | Potency
CN(C)S(=O)(=O)c1cc(NC(=O)c2cc(=O)c3ccccc3o2)ccc1Cl |  | inconclusive: 2.51 µM [inhibitor, full curve]
CCOC(=O)c1c(C2CC2)csc1NC(=O)COC(=O)c1ccc[n+]([O-])c1 |  | inconclusive: 10 µM [inhibitor, partial curve]
COc1ccc(C2/C=C\CN(C(=O)OCc3ccccc3)CC(=O)N2Cc2ccc(F)cc2)cc1 (stereo not given) |  | inconclusive: 15.8 µM [inhibitor, partial curve, poor fit]
COc1cc(C[C@@H](C)N)c(OC)cc1I |  | inconclusive: 31.6 µM [inhibitor, single point]
CC1CCCN(c2c3c(nc4ccccc24)CCCC3)C1 (stereo not given) |  | inconclusive: 15.8 µM [inhibitor, partial curve]
CS(=O)(=O)N1CCc2cc(S(=O)(=O)N3CCN(Cc4ccc5c(c4)OCO5)CC3)ccc21 |  | inconclusive: 31.6 µM [inhibitor, single point]
Nc1cc(-c2ccc(Cl)cc2)nn1S(=O)(=O)c1ccccc1 |  | inconclusive: 31.6 µM [inhibitor, single point]
COc1ccc(-c2nc(NC(=O)c3ccc(OCC(=O)N4CCOCC4)c(OC)c3)sc2C)cc1 |  | inconclusive: 35.5 µM [inhibitor, partial curve]
CC(C)c1ccc(OCCCCN2CCCCC2)cc1 |  | inconclusive: 15.8 µM [inhibitor, single point]
CS(=O)(=O)N1CCN(C(=O)NC2CCCCC2)CC1 | inactive: 6.2% | 
CN(C)/C=C(\C(=O)c1ccccc1)c1nnnn1-c1ccccc1 | inactive: 23.8% | 
C=CCn1c(O)c(C(CC)=NCc2ccc3c(c2)OCO3)c(=O)[nH]c1=O | inactive: -5.66% | 
CN(C(=O)COC(=O)c1ccc2[nH]c3c(c2c1)CCCC3)C1CCS(=O)(=O)C1 (stereo not given) |  | inconclusive: 7.94 µM [inhibitor, partial curve]
Oc1ccc(/C=N/Nc2ccc(Cl)nn2)c(O)c1O |  | inconclusive: 10 µM [inhibitor, partial curve]
COCC(=O)NNC(=O)c1ccc(OC)cc1 |  | inconclusive: 11.2 µM [inhibitor, single point]
Cc1ccc(-n2nnnc2Sc2ccc(S(=O)(=O)NCCN(C)C)cc2[N+](=O)[O-])cc1 |  | active: 10 µM
COC(=O)CSc1nnc(CNC(=O)c2ccc(S(=O)(=O)N3CCCCC3)cc2)n1C | inactive: 7.55% | 
COc1ccc(Cn2c(C3CC3)nc3ccc(NC(=O)C4CC4)cc3c2=O)cc1 |  | inconclusive: 31.6 µM [inhibitor, single point]
CCN(CC)C(=O)C1CCCN(c2ccc([N+](=O)[O-])cc2[N+](=O)[O-])C1 (stereo not given) | inactive: -14.9% | 
CCOC(=O)C1C(=O)C=C(c2ccc(C)cc2)CC1c1ccc([N+](=O)[O-])cc1 (stereo not given) |  | inconclusive: 31.6 µM [inhibitor, single point]
CCCCCn1c(=NC(=O)c2ccco2)c(C(=O)OCC)cc2c(=O)n3ccccc3nc21 |  | inconclusive: 2.24 µM [inhibitor, full curve] and inconclusive: 501 nM [inhibitor, full curve, poor fit]
Cc1ccc(Oc2cc(NC(=O)CCCn3nc([N+](=O)[O-])cc3C)cc([N+](=O)[O-])c2)cc1 |  | inconclusive: 11.2 µM [inhibitor, single point]
